# Measured values as given in the RNAGym collection of RNA variant scans (doi:10.1093/nar/gkz1192).
# Read counts are not given, so values of variants with three or more changes are uncertain.
# B1: CPEB3 Ribozyme (parent)
# chain: UAACAGGGGGCCACAGCAGAAGCGUUCACGUCGCAGCCCCUGUCAGAUUCUGGUGAAUCUGCGAAUUCUGCUGUAUAUCUC
# Variants of: B1
# Experiment: self-cleavage, relative activity (ratio to wild type); higher = more cleavage; in vitro, sequencing
# Outline: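 Relative activity was defined as the cleaved/total read fraction for a variant divided by the same fraction for the unmutated ribozyme. CPEB3 self-cleaving ribozyme libraries were made by rounds of error-prone PCR, barcoded, and transcribed in vitro with T7 RNA polymerase for 5 hours at 37°C, and cleavage ran through transcription plus a 15 min DNase I step before EDTA. Illumina sequencing of template-switched reverse transcripts gave the reads, and DNA sequencing mapped the barcodes. Averages come from three batches, using variants with at least 5 reads.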
row,Variant,self-cleavage
1,A3G A15G U78C,1.05
2,A3G A15G U25C C29A U51A U78C,0.59
3,A3G A15U A28G,0.29
4,A2U U54C U66C U80C,0.28
5,A3G A45U A64G U66A,0.27
6,A3G G9A A20C A77G,0.59
7,A3G A5G G46U U69A,0.29
8,A3G A28G U41C,0.77
9,A3G G7A U25G,0.14
10,A3G A18G A21G A35G G52U U72C U80C,1.25
11,A3G A18U A21G A64U G70U,0
12,A3G G7A G10C U54A U60C G63A U67A,0.04
13,A3G A15G A21G A65G,0.32
14,A3C G7U A13U U43C,0.38
15,A3G G8A A56U,0.48
16,A3G A5U A20G U26C U31C U49C U74C,0
17,A3G A21G U49C,0.4
18,A3G A35U U49A A65G,0.19
19,A3G A35C C50G U51C U67A,0.13
20,A3G C12A A18G,0.58
21,A3G A13G A47G U49C U60A,0.41
22,A3G A21G A45U U54C,0.08
23,A3C A5U A56G,0.76
24,A3C A5U U26C,0.62

row,Variant,self-cleavage
1,A3G A13G A18U G30U U41A,0.51
2,A3G A20U C38G,0.08
3,A3G C11G U26G,0.09
4,A3G A13G A45G,0.93
5,A3G A13G C38U U43C U54C U80C,0.18
6,A2U U51C A57G,0.78
7,A3G A57G U80A,1.16
8,A3G C11G U31C A45U,0.05
9,A3G A28G C62G,0.15
10,A3C A18G U60G U67A,0.47
11,A3G C40U U48A U51G A56U,0.29
12,A3G A35U U54C A56G,0.45
13,A3C A5G A15G A18G U25C U51C A65G,1.2
14,A3G A35G U51C,1.27
15,A3G A18G U49C U69C,0.69
16,A3G A13U U54C A56U A64G,0.55
17,A3G A45G U48C U58A,0.08
18,A3C G6A U49C U58A U72A,0.07
19,A3G A18G A20U U76C,0.54
20,A3G A18U U41C C50A A64G,0.2
21,A3G C14U A21G U80A,0.99
22,A3G A21G U31C A64G U80C,0.15
23,A3G C11A U48C,0.09
24,A3G A28G A47G U48C A77U,0.58

row,Variant,self-cleavage
1,A3G A20G U54A U66G,0.13
2,A3G A35U G73A A75G,1.04
3,A3G A35U U49A A65G U69A,0.15
4,A3G A21G G22C U26C A28U C34G,0.11
5,A3G A45C C50A U80C,0.38
6,A3G A35U A56C,0.46
7,A3G A18G U54A A57G U66A,0.31
8,A3G A21G U54A U80A,0.83
9,A3G A15U A18U C29G G61A U76C,0.11
10,A3C A21C U31A U80C,0.45
11,A3G A57G U72G,0.52
12,A3G A5G U54C A56G U72C A77U C79U,0.54
13,A3G A5U A13U U26A C29U G30A C39U,0.2
14,A3G A20U U31C A56U U66C,0.12
15,A3G A35G G53A U60C U69C,0.87
16,A3G A13U U31C U41C A64G U69C U80C,0.24
17,A3G A18G C40A U41C G73U,0.64
18,A3C A20C A45U U72C A77G,0.11
19,A3G G6A U80A,0.7
20,A3G A35U U67C,0.13
21,A3G C14A U31A C62G A64U,0.16
22,A3G A45G U67A,0.25
23,A3G A20G C40U U72A U80C,1.01
24,A3G C14A A28U G30A U67C,0.15

row,Variant,self-cleavage
1,A3G A20G U31G,0.85
2,A3G C17U U76C C81U,0.97
3,A3G A5G U41C U43C U54C A64G,0
4,A3G A5G G8A A57G,0.67
5,A3C G7A U43C,0.08
6,A3G A5U U31G U41C A56U A65G,0.29
7,A3G A5G C44U,0.49
8,A3G A13U U26C A28G A35G,1.04
9,A3G G7C U31C U41G,0.07
10,A3G G8A A57G,0.27
11,A3G A21G U66G U78A U80C,0.3
12,A3G A18G U49C,0.46
13,A3C A56G U80C,0.91
14,A3G A5U U26C U43C G70A,0.2
15,A3G C40U U67C U72A,0.15
16,A3G A5U A28C A47U A75U,0.57
17,A3C C27U A28G,0.3
18,A3G A18G U80A,0.96
19,A3G A28G C34U A47G U74C U76G,0.07
20,A3G A13U U25A,0.48
21,A3C A15G U26A C27A A64U,0.09
22,A3G A13G G70A U78C,0.22
23,A3G G8U U51C,0.09
24,A3G A18G U25A A64G U76C,0.15

row,Variant,self-cleavage
1,A3G C27A G33A A64U U76C A77U,0.07
2,A3G A35G U58C A64G U66C,0.68
3,A3G A20G C39A,0.1
4,A3G A15G U26C U60C,0.19
5,A3C A15G U25C A35U,0.39
6,A3G A5G U26C U76C U78A,0.24
7,A3G A35G A45U A47G U66C,0.43
8,A3G A35U G42A A77U,0.29
9,A3G A15G U25C A28G A56U,0
10,A3G A15G U80A,0.61
11,A3G A45G A47G A57G A65G U78C,0.3
12,A3G A28G A47C U51A,0.24
13,A3G C12A A65G,0.77
14,A3G A15G C39G A47U U49A U67C U80C,0.09
15,A3G A28G G30A U41A G73U U78C,0.09
16,A3G A35G U41C U60C U78C,1.16
17,A3G A13G A18U G33A C50A A65G,0.06
18,A3G A13G G33U U58G,0.1
19,A3G A28G A35G,1.2
20,A3G A20G A28U A35G A45U U51C U67C,0.6
21,A3G A35C U74C,1.19
22,A3G A5G U43A U72A,0.14
23,A3G A35U A65G,0.36
24,A3G A28G A47G A64G U80A,0.77

row,Variant,self-cleavage
1,A3C A15G A47G U60A,0.49
2,A3G A35G U41C U58C U60C,0.35
3,A3C G16A A28G,0.44
4,A3G A28C U31C A57G U60C U80C,0.12
5,A3C U26A U60G A64U,0.4
6,A3G A56G A77G,0.88
7,A3G A15U A20G U51A A57G G70A,0.07
8,A3G A5G C37U U54C,0.51
9,A3C A13U A35U U74C,1.24
10,A3C U25C A35G U41C U51C,0.2
11,A3G A18U C23A U43C A45G U49A U69G,0.15
12,A3G G9A A18G A45C U72C,0.05
13,A3G C37A U66C,0.13
14,A3G A13G A28G A47G C68A U80A,0.25
15,A3G A13U A56G U69C,0.35
16,A3G A13C U80A,1.09
17,A2U U43C G52U,0.68
18,A3G A13G U26C U54A,0.62
19,A3G A13G A15U A28G U41A A64U,0.06
20,A3G G8A A15G C29U U41C U43A,0.39
21,A3G C68A U69C U80A,0.27
22,A3G A13U U60C A65G U67C,0.55
23,A3G A47U U67C,0.36
24,A3G A35U A75C,0.57

row,Variant,self-cleavage
1,A3G G8A A21G A65G U78C,0.15
2,A3C G7A U31C C32U U80A,0.08
3,A3G A21G A35U U60A U72C,0.47
4,A3G A18G U26C,0.56
5,A3G A28G U48C U54C G55A A64G U76C,0.3
6,A3G A35G A56U U67C C79G U80C,0.86
7,A3G A15G G46C,0.2
8,A3G A13C U49C U66A U74A A75G,0.18
9,A3G A45G A56U,0.24
10,A3G A28G A35U U76A U78C,0.37
11,A3G C27U U41C,0.37
12,A3G A13G U41A G63A,0.24
13,A3G A5G U25C U31A U41C U49C U72A,0.25
14,A3G A18G G33A U48C U74A,0.3
15,A3G A20G U72C U78C,0.92
16,A3G G8A A18G A20G U76C,0.27
17,A3G A47G U49C A64G U67C G73C A75C,0.06
18,A3G A18G A20G,0.71
19,A3G A35U A45G U48C,0.07
20,A3G A20U U72C,0.39
21,A3G A21G A35G U54G A65G U67C,0.32
22,A3G A21G A28G A35G C62U,0.17
23,A3G C11A G53A U58C,0.1
